Results: paper PMC6919601, “Identification of Plasmodium dipeptidyl aminopeptidase allosteric inhibitors by high throughput screening” (PLoS ONE, 2019)
Among all 110,000 compounds or so, about 230 (0.21%) showed an effect of 50% or more. Some of the results follow.

Biological target: DPAP1 (Plasmodium falciparum, UniProt Q8IIJ9)
Assay: primary screen, percent inhibition; read by cleavage of a fluorogenic dipeptide substrate; higher = more effect of the substance
Design: species or system P. falciparum D10 trophozoite lysates; single well
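Also: 30 min substrate incubation versus DMSO and 10 µM JCP410 controls.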

DPAP1, sequence (Q8IIJ9 whole entry, looked up): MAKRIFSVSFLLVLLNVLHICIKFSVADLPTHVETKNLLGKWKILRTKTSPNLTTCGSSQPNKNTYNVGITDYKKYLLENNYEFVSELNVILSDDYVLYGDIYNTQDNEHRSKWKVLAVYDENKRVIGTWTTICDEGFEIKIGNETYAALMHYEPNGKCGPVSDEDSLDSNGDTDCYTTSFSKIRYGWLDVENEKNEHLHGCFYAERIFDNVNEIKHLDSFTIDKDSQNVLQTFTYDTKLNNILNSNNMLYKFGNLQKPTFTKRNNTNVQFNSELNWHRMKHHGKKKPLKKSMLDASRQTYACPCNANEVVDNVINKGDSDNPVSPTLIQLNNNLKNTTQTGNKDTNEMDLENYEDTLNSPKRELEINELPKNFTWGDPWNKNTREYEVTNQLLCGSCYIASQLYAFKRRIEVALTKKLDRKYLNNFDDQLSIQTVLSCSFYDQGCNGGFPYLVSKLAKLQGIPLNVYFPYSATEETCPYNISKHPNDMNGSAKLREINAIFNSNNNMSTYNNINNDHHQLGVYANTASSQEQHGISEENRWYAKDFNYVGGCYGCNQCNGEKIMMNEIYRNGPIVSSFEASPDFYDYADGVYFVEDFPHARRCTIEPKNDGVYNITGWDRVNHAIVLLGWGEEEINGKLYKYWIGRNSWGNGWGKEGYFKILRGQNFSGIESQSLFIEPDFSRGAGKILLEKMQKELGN

Compound | % Inhibition @ 10 uM
CC(C(=O)N1CCN(Cc2ccccc2)CC1)n1sc2ccccc2c1=O (stereo not shown) | -2.94%
OCCOc1ccc(C2=NCCO2)cc1 | 0.135%
CCCCOc1ccc(/C=C(\C#N)c2nc(-c3ccc(C)cc3C)cs2)cc1 | -0.771%
COc1ccc2c(CNCc3ccccc3Cl)c(C(=O)O)n(Cc3ccc(F)cc3Cl)c2c1 | 3.64%
Cc1ccc(COc2ccc(C3C(C#N)=C(N)Oc4cc5c(cc43)OCO5)cc2)cc1 (stereo not shown) | 0.565%
Cc1ccc(-n2c(SCC(=O)N3CCOCC3)nc(=O)c(Cc3ccccc3)c2O)cc1 | -1.07%
COC1CCCCC1NCCc1ccc(Cl)cc1 (stereo not shown) | -1.85%
O=C1CC(c2ccco2)Cc2nc(NC3CC3)ncc21 (stereo not shown) | 1.02%
CS(=O)(=O)N1CCC(C(=O)NCCCN2CCCCC2)CC1 | -4.97%
Cc1cc2n(n1)C(c1cccc(O)c1O)Nc1c(C)cccc1-2 (stereo not shown) | -4.52%
O=C(O)C/N=C(\NS(=O)(=O)c1ccc(Cl)cc1)c1ccccc1 | 1.25%
O=c1/c(=C/c2cccc(O)c2)sc2n1CCCN=2 | 1.21%
O=C(Nc1cccc(Cl)c1)Nc1ccccc1OC(F)(F)C(F)Cl (stereo not shown) | 2.38%
COc1cc(CN2CCCN(C)CC2)cc(OC)c1OC | -3.69%
O=c1c2ccccc2nc(/C=C/c2cccnc2)n1-c1ccccc1 | 1.37%
OC(Cn1ccnc1)(c1ccc(F)cc1)c1ccccn1 (stereo not shown) | 2.62%
CO/C(O)=C1\C(C)=NC(=S)NC1c1cccc2ccccc12 (stereo not shown) | -5.28%
CC1(C)[N+]([O-])=c2ccccc2=[N+]1[O-] | 1.84%
CCCc1cc(Cl)n2c(nc3ccccc32)c1C#N | 0.9%
Cc1cccc(N/C=C2/C(=O)NC(=O)N(c3ccccc3)C2=O)c1C | 2.69%
CSc1ccc(/C=c2/sc3nc4c(C)c(C)ccc4n3c2=O)cc1 | -0.479%
CCOC(=O)c1ccc(CN(Cc2ccccc2)S(=O)(=O)c2ccc(F)cc2)cc1 | -1.99%
CC(C(=O)NCc1ccc2c(c1)OCO2)n1sc2ccccc2c1=O (stereo not shown) | -2.78%
CCCOc1ccc(C(=O)NC2CCS(=O)(=O)C2)cc1 (stereo not shown) | -4.52%
CCCN1CN(c2nc3ccccc3s2)CN(c2nc3ccccc3s2)C1 | -1.72%

Compound | % Inhibition @ 10 uM
O=C(O)Cc1c(-c2ccc(Cl)cc2)nc2ccccc2c1C(=O)O | -0.256%
Cc1noc2ncnc(NCCCN3C(C)CCCC3C)c12 (stereo not shown) | -1.79%
Cc1c(C(=O)N2CC=C(c3ccccc3)CC2)sc2nc3n(c(=O)c12)CCCCC3 | -0.205%
Nc1nc(CSc2nnnn2-c2ccc(Cl)cc2)nc(N2CCOCC2)n1 | -1.24%
COC(=O)C1=CN(C)C=C(C(=O)OC)C1c1ccc(C(F)(F)F)cc1 | 3.47%
O=C(Cn1ncc2c3ccccc3n(Cc3ccccc3F)c2c1=O)NCCc1ccccc1 | 0.137%
O=C(CC(c1ccc(F)cc1)N1Cc2ccccc2C1=O)NC1CCCC1 (stereo not shown) | -1.83%
CCCN1CCC(N2CCCC2CO)CC1 (stereo not shown) | -6.62%
CCCc1[nH]nc2c1C(c1ccccc1Br)C(C#N)=C(N)O2 (stereo not shown) | -6.27%
Cc1ccccc1C(=O)N[C@@H](CC1CCCCC1)C(=O)NCC#N | -1.83%
Fc1cccc(Cl)c1-c1nc(-c2ccccc2)c(-c2ccccc2)[nH]1 | -0.0217%
COc1ccc(C(O)P(=O)(Oc2ccccc2)Oc2ccccc2)cc1 (stereo not shown) | 3.74%
O=C(C1=C(O)C(=O)N(c2ncccn2)C1c1ccccc1F)c1ccc(F)cc1 (stereo not shown) | -7.61%
O=C(Nc1ccccc1Br)C1CC(=O)N(c2ccc(F)cc2)C1 (stereo not shown) | -1.08%
COc1cc(/C=C2/C(=N)N3C(SC)=NSC3=NC2=O)ccc1O | -3.79%
O=C(Nc1nc(-c2ccc(S(=O)(=O)N3CCCC3)cc2)cs1)c1cccc(Cl)c1 | 4.31%
CC(C)(C)c1cc(CN2CCN(CCN)CC2)cc(C(C)(C)C)c1O | -6.09%
COc1ccc(C2C(C(C)=O)=C(C)N(C)C3=C2C(=O)c2ccccc23)cc1 (stereo not shown) | 1.86%
COc1cc2c(cc1OC)C(c1cc3c(cc1[N+](=O)[O-])OCO3)NCC2 (stereo not shown) | -3.92%
Cc1cnc(NC(=O)c2c(O)c3ccccc3n(CCC(C)C)c2=O)s1 | 1.67%
CN(C)CCCN(CCCc1ccccc1)CCCN(C)C | 0.273%
CCOc1cc(/C=C2/C(=N)N3OC(C)=CC3=NC2=O)ccc1OCCOc1ccc(C)cc1 | 0.317%
CN(C)CCNC(=O)c1ccc(CSc2nc3ccncc3n2Cc2cccc(F)c2)cc1 | 2.65%
CCc1c(C)sc(NC(=O)COc2ccc(F)cc2)c1C#N | 0.777%
OC1CCCc2c1[nH]c1ccc(OCc3ccccc3)cc21 (stereo not shown) | -3.5%

Compound | % Inhibition @ 10 uM
CCN(CC)S(=O)(=O)c1cc(C(=O)O)ccc1C | -2.51%
COC(=O)C1=CN(Cc2ccc(OC)cc2)C=C(C(=O)OC)C1c1cccc(Oc2ccccc2)c1 | 3.45%
FC(F)(F)c1ccc(CN2CCN(C/C=C/c3ccccc3)CC2)cc1 | -1.86%
CN(C)c1ccc(C(=O)Nc2ccc(Cl)c(C(N)=O)c2)cc1 | -0.034%
CCN(CC)c1sc(S(=O)(=O)CC)nc1S(=O)(=O)c1ccc(C)cc1 | -4.04%
CCCNS(=O)(=O)c1c[nH]c(C(=O)OC)c1 | 2.24%
Cc1cccc(C)c1-n1nnnc1C(c1ccc(Cl)cc1Cl)N(C)C (stereo not shown) | 6.61%
O=[N+]([O-])c1ccc(N2CCN(Cc3ccc(Br)o3)CC2)cc1 | 3.1%
COCCCNC(=O)CS(=O)(=O)Cc1nc(-c2ccc(C)cc2)oc1C | -0.138%
CC1CCCCN1Cc1csc2c1CCCC2 (stereo not shown) | 6.89%
CCCCCCNC(=O)C1C2C=CC(C2)C1C(=O)O (stereo not shown) | 3.16%
OC(C#Cc1ccccc1)c1ccco1 (stereo not shown) | 3.82%
CCOC(=O)N1CCN(C(=O)C2CCN(c3nc4ccc(CC)cc4s3)CC2)CC1 | 1.07%
CC(C)c1ccc(OCC(=O)N2CCCCC2)c(Br)c1 | 1.49%
COc1ccc(OCC(=O)N2N=C(c3ccc(Br)cc3)CC2(O)C(F)(F)F)cc1 (stereo not shown) | -0.865%
COc1cccc(-c2nc(-c3cccnc3)no2)c1 | 3.01%
Nc1c(C(=O)c2ccc(Cl)cc2)oc2ccccc12 | -0.99%
O=C(O)/C=C/C(=O)c1c(-c2ccccc2)[nH]c2ccccc12 | -0.744%
Cc1ccccc1NC(=O)COc1ccc(Cl)cc1 | 4.8%
CCc1nnc(NC(=O)CSc2nnc(-c3ccccc3O)n2CC)s1 | 0.032%
Cc1cc(-c2cccs2)c2c(n1)sc1c(O)cc(O)nc12 | 0.0719%
O=C(NC1CCC(NC(=O)C2CCCC2)CC1)C1CCCC1 (stereo not shown) | 0.583%
CC(C)C[C@H](NC(=O)OCc1ccccc1)C(=O)NC(C#N)c1ccccc1 (stereo partly shown) | 9%
CCN(CC)CCCNC(=O)Cn1ncc2c3ccccc3n(Cc3c(C)cc(C)cc3C)c2c1=O | 1.8%
Cc1nnc(N2CCN(C(=O)NC34CC5CC(CC(C5)C3)C4)CC2)c2nn(-c3ccccc3)c(C)c12 | 3.33%

Compound | % Inhibition @ 10 uM
CC1CCN(C(=O)c2cc(Cl)ccc2NC(=O)c2ccco2)CC1 | 3.86%
CCC(=O)CSC1=C(C#N)C(c2ccc(Cl)cc2)C(C(C)=O)=C(C)N1 (stereo not shown) | 2.8%
COc1ccc(-c2cn3c(C)c(C(=O)NC(C)C)sc3n2)cc1 | -0.138%
Cc1cc(C(F)(F)F)nn1CC(=O)Nc1sc2c(c1C#N)CCCC2 | 13%
O=C(CN1N=C(c2ccc(Cl)cc2)CCC1=O)NCc1cccnc1 | -1.21%
CCc1ccc(CN(C)CCN(C)C)cc1 | -2.6%
C=CCN1C(=O)N/C(=C/c2cc(C)n(-c3sc4c(c3C#N)CCCC4)c2C)C1=O | 6.24%
CC1(C)Cc2c(sc3nc(SCC(N)=O)n(-c4ccccc4)c(=O)c23)CO1 | 1.02%
COC(=O)C1=C(C)NC(=O)C1(Nc1nc2ccccc2s1)C(F)(F)F (stereo not shown) | -3.33%
CCC(C)S(=O)(=O)c1oc(-c2ccc(F)cc2)nc1S(=O)(=O)c1ccccc1 (stereo not shown) | 2.14%
COc1ccc(-c2[nH]nc3c2C(c2ccc(C(C)C)cc2)C(C#N)=C(N)O3)cc1 (stereo not shown) | 7.73%
O=C(O)C1CCN(c2ncccn2)CC1 | -4.07%
O=S(=O)(c1ccc(-n2cnnn2)cc1)N1CCC2(CC1)OCCO2 | -0.671%
COc1ccc(C(=O)c2cnc3nc(C)ccc3c2O)cc1 | 1.5%
CCN1C(=O)/C(=C/c2cc(C)n(CC)c2C)S/C1=N\c1ccc(N2CCOCC2)cc1 | 2.84%
CCc1c(O)cc(=O)n(-c2ccccc2)c1-c1ccccc1 | 2.32%
O=C(Nc1cnn(Cc2ccc(Cl)cc2Cl)c1)c1cc(-c2ccco2)on1 | -5.09%
CCN(CC)c1ccc(NC(=O)C(C)N2C(=O)c3ccccc3C2=O)cc1 (stereo not shown) | -9.82%
COc1cccc2cc(-c3nc(-c4ccc(-n5cccc5)cc4)no3)c(=O)oc12 | -2.19%
CC(Nc1cc(C)ccn1)=C(C#N)C#N | -0.406%
COc1cc(-c2cc(C(=O)O)c3ccccc3n2)ccc1O | -4.67%
O=C1CC(c2ccccc2)CC(=O)C1=CNCCC(c1ccccc1)c1ccccc1 (stereo not shown) | -0.357%
CCN(CC)CCN(C(=O)Cc1ccccc1)c1nc2ccc(C)cc2s1 | 0.233%
COc1cc(CNC(=O)c2ccc(C(=O)c3ccccc3)cc2)cc(OC)c1OC | -0.891%
CC1CCN(C(=O)CN(C)S(=O)(=O)c2cc(Cl)ccc2Cl)CC1 | 1.88%
